The structures appear in SMILES notation. Out of some 310,000 compounds screened, about 2,200 (0.71%) showed an effect of 50% or more. Effects have a minus sign here. The list shows a part of the results.

The target in this assay is human ether-à-go-go-related gene (hERG) potassium channel (human, UniProt Q12809). Description: primary screen, population patch clamp on CHO cells stably expressing hERG.
human ether-à-go-go-related gene (hERG) potassium channel, sequence (Q12809 whole entry, looked up): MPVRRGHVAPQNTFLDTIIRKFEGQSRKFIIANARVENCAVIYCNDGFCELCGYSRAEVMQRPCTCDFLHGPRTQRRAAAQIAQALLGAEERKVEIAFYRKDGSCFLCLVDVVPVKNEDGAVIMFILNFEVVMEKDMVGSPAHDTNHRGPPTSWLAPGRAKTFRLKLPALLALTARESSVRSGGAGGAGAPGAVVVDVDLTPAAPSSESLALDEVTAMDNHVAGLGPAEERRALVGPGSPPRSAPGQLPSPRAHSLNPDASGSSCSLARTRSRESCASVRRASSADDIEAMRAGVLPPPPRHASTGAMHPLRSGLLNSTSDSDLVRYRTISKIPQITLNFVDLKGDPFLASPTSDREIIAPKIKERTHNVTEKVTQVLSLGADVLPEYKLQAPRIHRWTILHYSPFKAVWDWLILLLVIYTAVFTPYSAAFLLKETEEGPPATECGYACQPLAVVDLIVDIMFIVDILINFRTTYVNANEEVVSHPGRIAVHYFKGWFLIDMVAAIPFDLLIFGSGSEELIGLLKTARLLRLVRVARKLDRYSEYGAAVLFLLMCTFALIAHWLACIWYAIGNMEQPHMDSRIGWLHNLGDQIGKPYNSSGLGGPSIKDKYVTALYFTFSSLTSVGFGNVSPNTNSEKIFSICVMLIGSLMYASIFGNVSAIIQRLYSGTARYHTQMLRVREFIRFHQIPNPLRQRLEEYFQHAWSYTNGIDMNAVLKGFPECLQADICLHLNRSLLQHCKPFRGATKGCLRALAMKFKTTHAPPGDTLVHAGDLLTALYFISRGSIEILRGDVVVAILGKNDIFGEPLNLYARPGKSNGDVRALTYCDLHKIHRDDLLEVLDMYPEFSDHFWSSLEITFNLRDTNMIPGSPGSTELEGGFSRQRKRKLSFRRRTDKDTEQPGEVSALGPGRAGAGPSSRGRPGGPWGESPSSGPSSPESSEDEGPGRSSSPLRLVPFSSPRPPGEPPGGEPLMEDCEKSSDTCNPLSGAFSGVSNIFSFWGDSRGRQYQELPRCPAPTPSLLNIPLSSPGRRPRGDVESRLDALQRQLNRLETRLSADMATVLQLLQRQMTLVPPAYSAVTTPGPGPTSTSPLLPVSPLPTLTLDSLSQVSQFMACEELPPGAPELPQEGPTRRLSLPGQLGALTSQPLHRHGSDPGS
As for `CCCC(C)C(=O)Nc1cccc(NC(C)=O)c1` (centres unmarked), the “hERG current change (%, negative = inhibition) at 1uM” value came to 4.54%.

Consider `O=C(CCc1ccccc1)N=C1SC2CS(=O)(=O)CC2N1c1ccccc1` (centres unmarked), for which the “hERG current change (%, negative = inhibition) at 1uM” value came to 14.9%.

For the molecule `CCOC(=O)C1C(=O)NC(SCC(=O)OC)=C(C#N)C1c1ccccc1OCC` (centres unmarked), the “hERG current change (%, negative = inhibition) at 1uM” value was -1.84%.

As for `COc1ccc(S(=O)(=O)N2CCOCC2)cc1NC(=O)C1CCCN1C(=O)c1cccs1` (centres unmarked), the “hERG current change (%, negative = inhibition) at 1uM” value was 6.39%.

In the case of `Cc1ccc(OCC(=O)OCC(=O)N2c3ccccc3CC2C)cc1C` (centres unmarked), the “hERG current change (%, negative = inhibition) at 1uM” value was found to be 7.81%.

On to `COC(=O)C(Cc1ccccc1)NC(=O)c1ccc(NS(=O)(=O)c2ccc3[nH]c(=O)[nH]c3c2)cc1` (centres unmarked), for which the “hERG current change (%, negative = inhibition) at 1uM” value is 14.2%.

For `CCOc1ccc(CCNC(=O)C2CCCN2C(=O)OCc2ccccc2)cc1OCC` (centres unmarked), the “hERG current change (%, negative = inhibition) at 1uM” value is listed as 19.1%.

Regarding `CC1(C)C=Cc2cc(-c3coc4cc(O)cc(O)c4c3=O)cc(O)c2O1`, the “hERG current change (%, negative = inhibition) at 1uM” value is on record as 1.85%.

For `O=C(Nc1ccncc1)c1cc(-c2ccccn2)nc2ccccc12`, the “hERG current change (%, negative = inhibition) at 1uM” value is given as 5.97%.

Regarding `CCOc1cccc(Nc2ccc([N+](=O)[O-])cn2)c1`, the “hERG current change (%, negative = inhibition) at 1uM” value was 14.8%.

For `COc1ccccc1S(=O)(=O)Cc1ccc(C(=O)NCCN2CCCCCC2)o1`, the “hERG current change (%, negative = inhibition) at 1uM” value turned out to be 9.15%.

For `Cn1ncc(C(=O)N=S(C)(=O)c2ccccc2)c1[N+](=O)[O-]` (centres unmarked), the “hERG current change (%, negative = inhibition) at 1uM” value is reported as 13.3%.

For `Cc1ccccc1OCCNC(=O)CSc1ccc(C(F)(F)F)cc1[N+](=O)[O-]`, the “hERG current change (%, negative = inhibition) at 1uM” value was determined as 12.6%.

As for `COc1ccccc1C(CNC(=O)c1ccc(OCc2c(C)noc2C)cc1)N1CCCC1` (centres unmarked), the “hERG current change (%, negative = inhibition) at 1uM” value is given as 6.37%.

Take `C[C@H](NCCc1ccc(O)cc1)[C@H](O)c1ccc(O)cc1.Cl`: the “hERG current change (%, negative = inhibition) at 1uM” value is listed as 6.91%.

Take `CC(C)C(NC(=O)c1ccccc1)C(=O)N1CCCCCC1` (centres unmarked): the “hERG current change (%, negative = inhibition) at 1uM” value is recorded as 18.1%.

Turning to `Cc1cc(=O)oc2cc(OCC(=O)OCc3nnc(-c4ccccc4)o3)ccc12`, the “hERG current change (%, negative = inhibition) at 1uM” value turned out to be 14.9%.

On to `CC(=O)N1CCC(N(CCN2CCOCC2)C(=S)Nc2ccc(C)cc2)CC1`, for which the “hERG current change (%, negative = inhibition) at 1uM” value is 5.62%.

Take `O=C(COC(=O)C12CC3CC(CC(Br)(C3)C1)C2)N1CCOCC1`: the “hERG current change (%, negative = inhibition) at 1uM” value amounted to 3.26%.

For `Nn1c(SCc2ccccc2)nnc1C1CCCCC1`, the “hERG current change (%, negative = inhibition) at 1uM” value turned out to be 8.62%.

Turning to `CNS(=O)(=O)c1cccc(C(=O)OCC(=O)c2cc3ccccc3o2)c1`, the “hERG current change (%, negative = inhibition) at 1uM” value stood at 21%.

On to `COc1cccc(N2CCN(c3ccc4nnc(CCC(=O)Nc5ccc(F)cc5F)n4n3)CC2)c1`, for which the “hERG current change (%, negative = inhibition) at 1uM” value is 4.98%.

Take `O=S(=O)(/N=C(/c1ccc(F)cc1)N1CCCCC1)c1ccc(Cl)cc1`: the “hERG current change (%, negative = inhibition) at 1uM” value turned out to be 2.75%.

For the molecule `Cc1ccc(C(=O)N(CC(=O)NC2CCCCC2)c2ccccc2F)s1`, the “hERG current change (%, negative = inhibition) at 1uM” value was 9.21%.

As for `O=C(c1ccco1)N1CCN(C(c2ccc(Cl)cc2)c2nnnn2Cc2ccccc2)CC1` (centres unmarked), the “hERG current change (%, negative = inhibition) at 1uM” value is listed as 1.83%.

Regarding `COC(=O)NN1C(=O)C(c2ccccc2)=C(c2ccc(Cl)cc2)C1=O`, the “hERG current change (%, negative = inhibition) at 1uM” value is 8.09%.

Consider `FC(F)(F)c1cccc(OCc2noc(-c3ccsc3)n2)c1`, for which the “hERG current change (%, negative = inhibition) at 1uM” value is given as 2.33%.

Turning to `Cc1nc2cc(-c3ccccc3)nn2c(C)c1CCC(=O)N1CCC2(CC1)OCCO2`, the “hERG current change (%, negative = inhibition) at 1uM” value was -17.1%.

`CCCCN(C(=O)CSc1nnnn1C)c1c(N)n(Cc2ccccc2)c(=O)[nH]c1=O`: the “hERG current change (%, negative = inhibition) at 1uM” value is 5.98%.

In the case of `Cc1c(C#N)c2ncnc(N)c2n1-c1ccccc1`, the “hERG current change (%, negative = inhibition) at 1uM” value is recorded as 8.09%.

For `CCN(c1ccccc1)S(=O)(=O)c1cc(CN2C(=O)c3cccnc3C2=O)ccc1OC`, the “hERG current change (%, negative = inhibition) at 1uM” value worked out at 12.3%.

With `COc1ccc(OC)c(NC(=O)c2cccnc2)c1`, the “hERG current change (%, negative = inhibition) at 1uM” value is on record as 14.8%.

On to `CCCCN(Cc1ccc(C(=O)N[C@H](C(=O)O)C(C)C)cc1)C(=O)C(c1ccccc1)c1ccccc1`, for which the “hERG current change (%, negative = inhibition) at 1uM” value was determined as 0.507%.

On to `Cc1cc(Cl)ccc1OCC(=O)N/N=C/c1ccncc1`, for which the “hERG current change (%, negative = inhibition) at 1uM” value is listed as 10.4%.

As to `COC(=O)c1cc(S(=O)(=O)NCCc2ccc(SC)cc2)c[nH]1`, the “hERG current change (%, negative = inhibition) at 1uM” value was found to be 8.98%.

Take `O=c1[nH]c(N2CCOCC2)cc2ccccc12`: the “hERG current change (%, negative = inhibition) at 1uM” value is reported as 4.63%.

In the case of `O=C1CCC(C(=O)Nc2cccc(S(=O)(=O)N3CCOCC3)c2)N1` (centres unmarked), the “hERG current change (%, negative = inhibition) at 1uM” value was found to be 5.74%.

In the case of `COc1ccc(NC(=O)CC2C(=O)N(c3ccccc3)C(=O)N2Cc2ccco2)cc1` (centres unmarked), the “hERG current change (%, negative = inhibition) at 1uM” value is recorded as 3.5%.

Take `CCNc1nnc(-c2ccccc2OC)s1`: the “hERG current change (%, negative = inhibition) at 1uM” value is reported as -7.06%.

With `O=C(NCc1ccccn1)Nc1ccc2c(c1)OCO2`, the “hERG current change (%, negative = inhibition) at 1uM” value was determined as 17.1%.

Consider `Cn1c(=O)oc2cc(S(=O)(=O)N3CCCC3)ccc21`, for which the “hERG current change (%, negative = inhibition) at 1uM” value was 13.2%.

On to `Fc1ccc(/C=N/N2CCOCC2)c(F)c1`, for which the “hERG current change (%, negative = inhibition) at 1uM” value was 47.1%.

For `COC(=O)C1=C(C(=O)OC)C(c2cc(Br)ccc2O)c2sc(=O)[nH]c2S1` (centres unmarked), the “hERG current change (%, negative = inhibition) at 1uM” value is recorded as -4.61%.

For `O=C(NCc1ccccc1)N[C@@H](Cc1c[nH]c2ccccc12)C(=O)O`, the “hERG current change (%, negative = inhibition) at 1uM” value is given as -3.67%.

Source of the values: PMC4336329 (PLoS ONE, 2015).
